Measurements as given in article PMC7819943, “Rice protein-binding microarrays: a tool to detect cis-acting elements near promoter regions in rice”.
The list shows a part of the results.

The sequences below were run against T1, OsWOX13 (Oryza sativa, UniProt Q5QMM3 1-267) (assay: protein-binding microarray (RPBM); PBS, 2% BSA, 51.3 ng/ul salmon testes DNA, 50 uM zinc acetate, 200 nM TF, 25 C, 1 h; high values mean tight binding). Conditions: protein: recombinant; tags: N-terminal polyhistidine and DsRed monomer fusion (pET32a); label: CyDye5-dUTP incorporated in the synthesized complementary strand; 3' TTTTT single-stranded linker to array surface; dsDNA, one strand shown.
T1 sequence: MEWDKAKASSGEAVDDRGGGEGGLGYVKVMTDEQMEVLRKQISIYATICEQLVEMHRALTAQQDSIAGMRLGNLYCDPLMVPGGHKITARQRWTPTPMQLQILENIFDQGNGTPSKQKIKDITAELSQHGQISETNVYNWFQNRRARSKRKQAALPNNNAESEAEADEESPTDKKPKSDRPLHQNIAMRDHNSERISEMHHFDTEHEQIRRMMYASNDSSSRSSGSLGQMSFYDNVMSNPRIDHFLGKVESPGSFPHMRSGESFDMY
How it was run: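 The binding signal is fluorescence intensity per feature, in arbitrary units, read on an Axon 4000B scanner. Polyhistidine- and DsRed-tagged transcription factors (N-terminal fusions) from E. coli BL21-CodonPlus were purified on Ni–NTA and applied at 200 nM for 1 h at 25 °C to a double-stranded, BSA-blocked custom Agilent array in buffer with 50 µM zinc acetate.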

Row | Sequence | binding signal
1 | TTTAAATAGATGAATAGTAATAGTATATTTCCAAACTGTGCGGAGTCACCTAGTGCAG | 22900 fluorescence intensity (a.u.)
2 | ACTCCGGTTCTCAATCAACTCCAAGTTAGTACATTCCAACCGGAGTCACCTAGTGCAG | 10300 fluorescence intensity (a.u.)
3 | CAAGGAGTCCAATTGATTTACAGGGTTTTATCTTTCCCCTCGGAGTCACCTAGTGCAG | 3400 fluorescence intensity (a.u.)
4 | ATATGATTAAACTCAAGTATAGTTGAGGGACGTAAATTGGCGGAGTCACCTAGTGCAG | 19700 fluorescence intensity (a.u.)
5 | GATAATAGATAATAGATAGATTGAAGATTAGGAAAGGGAACGGAGTCACCTAGTGCAG | 54800 fluorescence intensity (a.u.)
6 | AATTAATCATGCGTTAATGGACCGTTCCGTTTTCCGTGTTCGGAGTCACCTAGTGCAG | 20900 fluorescence intensity (a.u.)
7 | ATGCTCACCTTGCAATAATCAATCAACCTAAGTTGAAGAACGGAGTCACCTAGTGCAG | 5160 fluorescence intensity (a.u.)
8 | AACTAATCCATGATTAGCCATAAATGCTACAGTAACCCACCGGAGTCACCTAGTGCAG | 10800 fluorescence intensity (a.u.)
9 | GTAATCTAAAGACGTTTGGATTGATGAATGAAACAAATGTCGGAGTCACCTAGTGCAG | 5790 fluorescence intensity (a.u.)
10 | GGTGAAATCAATCCCCATGTCCCCACCCTCTGTGTAGCGGCGGAGTCACCTAGTGCAG | 3210 fluorescence intensity (a.u.)
11 | GATACAATCTGTTAGACGTGACAGTCATCTCTAATGGACACGGAGTCACCTAGTGCAG | 8880 fluorescence intensity (a.u.)
12 | AATTAATTGAACAGGCTGTTGGGCAGTGGCCTTCGGGAGACGGAGTCACCTAGTGCAG | 44200 fluorescence intensity (a.u.)
13 | ATGAGTATTAATTATTTTAAATTTCAAAATGAACTAATATCGGAGTCACCTAGTGCAG | 9270 fluorescence intensity (a.u.)
14 | GGGGAACACATTAGTTGTCAATCATCTCATCAGGTGGAGCCGGAGTCACCTAGTGCAG | 17100 fluorescence intensity (a.u.)
15 | GAACGGTCCATTAGCGCGTGATTAATTAAGTATTAGCTAACGGAGTCACCTAGTGCAG | 17300 fluorescence intensity (a.u.)
16 | ATCTTTAATAGATAGGGATTATCACTGGATAGGCCCGATTCGGAGTCACCTAGTGCAG | 17800 fluorescence intensity (a.u.)
17 | CAATCAATCTTCTTCATTCTGGCAGGTTATATATACAATCCGGAGTCACCTAGTGCAG | 6640 fluorescence intensity (a.u.)
18 | TTTAATTATAACAAATTCAACGATATAATTAGTTTGAAATCGGAGTCACCTAGTGCAG | 19200 fluorescence intensity (a.u.)
19 | GCGTATGATTTGCTGAAATGATAACGGATAAGTTTTAGATCGGAGTCACCTAGTGCAG | 19400 fluorescence intensity (a.u.)
20 | GCCATGATGATTTTGACGTCAAAGCCATCGAGTTAATTAGCGGAGTCACCTAGTGCAG | 14900 fluorescence intensity (a.u.)
21 | GACTCTAATTTAGTGATTGCTTCATGCCACGAATTATATTCGGAGTCACCTAGTGCAG | 13300 fluorescence intensity (a.u.)

Row | Sequence | binding signal
22 | GTATTAATTTCTGACAAGTACATGCGGCCTGGTGATATAACGGAGTCACCTAGTGCAG | 6390 fluorescence intensity (a.u.)
23 | TTTTGATAACTCCATTGACACAATTAAGCTAGGGGAAATTCGGAGTCACCTAGTGCAG | 5600 fluorescence intensity (a.u.)
24 | ACAATACTATAATTGGTATCAAAACTTAGCTAGTTCAGCACGGAGTCACCTAGTGCAG | 8940 fluorescence intensity (a.u.)
25 | GAATCAAATTACACTGATATTAACGTTTAAGAGTCAAGATCGGAGTCACCTAGTGCAG | 4690 fluorescence intensity (a.u.)
26 | ACACATCTCATCAATTTATCGTCATCATCGCAAACTTAACCGGAGTCACCTAGTGCAG | 9520 fluorescence intensity (a.u.)
27 | GTCCGTGCCCTAATTGTGTTATCTTCTGTAACTGATAGCACGGAGTCACCTAGTGCAG | 5230 fluorescence intensity (a.u.)
28 | TCGGGTGACTGGTTTTGTATAGTTAAGGGACCCTGCATATCGGAGTCACCTAGTGCAG | 3630 fluorescence intensity (a.u.)
29 | ACCCCAATCATCAGGCCAGAGACTGGCTCAACAAGATAGCCGGAGTCACCTAGTGCAG | 10100 fluorescence intensity (a.u.)
30 | TTGATGGAAATGATTGAAGAAATATTGCGATTTATCGAGACGGAGTCACCTAGTGCAG | 26200 fluorescence intensity (a.u.)
31 | ACTCATTTACTGTTTGATGAAATCTGTCATAGTTTCATGACGGAGTCACCTAGTGCAG | 5200 fluorescence intensity (a.u.)
32 | GGTGACAACGAGGGCTAATTGAAGCCTGTCACTGTACGCGCGGAGTCACCTAGTGCAG | 20600 fluorescence intensity (a.u.)
33 | TTATACCTGATTGCAGTATGATTTGCCTCCCTTCTGTCGACGGAGTCACCTAGTGCAG | 31900 fluorescence intensity (a.u.)
34 | CATAATTTGTGCTAAGTGCTAACAGTCTTCATTTGTTTTCCGGAGTCACCTAGTGCAG | 21000 fluorescence intensity (a.u.)
35 | AATTCAAAATTTAACTATGACAGATGAGAATACAAATCATCGGAGTCACCTAGTGCAG | 6580 fluorescence intensity (a.u.)
36 | TTAATTAGCATGTCAAGAGATTAATTAAAGGTTCAACTAGCGGAGTCACCTAGTGCAG | 24800 fluorescence intensity (a.u.)
37 | TGGCTAATCATGGTCTAATTATGCTCAAAAGATTCGTCTCCGGAGTCACCTAGTGCAG | 38000 fluorescence intensity (a.u.)
38 | TGACATGATTAGAGGTGTTAATTGGATAAAACAACTGCGTCGGAGTCACCTAGTGCAG | 35500 fluorescence intensity (a.u.)
39 | TTTATGAGTGACCAAATAATTGATCATAATTTCCAGAAATCGGAGTCACCTAGTGCAG | 12100 fluorescence intensity (a.u.)
40 | CGTTAGTCCGTTTTGCTTTTCTTATTGTAGTTCAGTTCTTCGGAGTCACCTAGTGCAG | 3160 fluorescence intensity (a.u.)
41 | GGCATGCAGAGGCCGATTCATCAATCAATGGATCGATTAACGGAGTCACCTAGTGCAG | 3530 fluorescence intensity (a.u.)
42 | TCTATTAATTTGCTACCCTTTCTGCATCACGGCCCTTATTCGGAGTCACCTAGTGCAG | 16200 fluorescence intensity (a.u.)
